Measured values as given in paper PMC6919601, “Identification of Plasmodium dipeptidyl aminopeptidase allosteric inhibitors by high throughput screening” (PLoS ONE, 2019).
Screen size: about 110,000 compounds; about 230 (0.21%) showed an effect of 50% or more. Some of the results follow.

These compounds were tested against DPAP1 (Plasmodium falciparum, UniProt Q8IIJ9) (assay: primary screen, percent inhibition; read by cleavage of a fluorogenic dipeptide substrate; higher = more effect of the substance).
Parameters: species or system P. falciparum D10 trophozoite lysates; single well
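Note: 30 min substrate incubation versus DMSO and 10 µM JCP410 controls.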

DPAP1, sequence (Q8IIJ9 whole entry, looked up): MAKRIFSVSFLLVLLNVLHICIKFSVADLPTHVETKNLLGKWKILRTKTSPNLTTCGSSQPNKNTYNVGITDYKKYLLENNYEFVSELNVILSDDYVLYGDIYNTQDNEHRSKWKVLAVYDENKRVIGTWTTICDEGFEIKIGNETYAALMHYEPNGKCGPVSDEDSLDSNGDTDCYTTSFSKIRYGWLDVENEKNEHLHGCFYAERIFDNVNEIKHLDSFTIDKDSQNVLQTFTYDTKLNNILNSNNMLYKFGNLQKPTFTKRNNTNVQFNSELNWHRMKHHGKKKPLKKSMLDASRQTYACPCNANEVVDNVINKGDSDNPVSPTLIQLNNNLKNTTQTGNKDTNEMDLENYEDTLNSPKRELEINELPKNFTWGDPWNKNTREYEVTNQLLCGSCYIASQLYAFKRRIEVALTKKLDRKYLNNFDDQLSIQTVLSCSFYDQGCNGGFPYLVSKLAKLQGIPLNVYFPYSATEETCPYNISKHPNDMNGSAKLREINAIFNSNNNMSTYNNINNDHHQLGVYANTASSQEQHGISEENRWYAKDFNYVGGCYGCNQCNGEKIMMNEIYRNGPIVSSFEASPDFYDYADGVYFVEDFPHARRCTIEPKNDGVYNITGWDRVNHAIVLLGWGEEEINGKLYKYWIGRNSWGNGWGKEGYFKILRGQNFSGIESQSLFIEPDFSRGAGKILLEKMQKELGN

First: COc1ccc(Cl)cc1-n1c(C)cc(/C=C2/C(=N)N3C(=NC2=O)SN=C3S(C)(=O)=O)c1C
Second: COc1cc(/C=C2/C(=N)N3C(=NC2=O)SN=C3S(C)(=O)=O)ccc1OCc1cccc(C)c1
The “% Inhibition @ 10 uM” value of the first is lower: -5.27% for the first, 0.163% for the second.

First: COc1cc(S(=O)(=O)Nc2ccc(C)cc2)ccc1N/C=C1\C(=O)N(C)C(=O)C(C#N)=C1C
Second: CCC/N=c1\c(NS(=O)(=O)c2cccc(C#N)c2)c(O)oc2ccccc12
The “% Inhibition @ 10 uM” value of the first is lower: -11.9% for the first, 2.31% for the second.

First: COc1cc(NC(=O)c2ccc(Cl)c(Cl)c2)c(OC)cc1NC(C)=O
Second: COc1ccc(OC)c(NC(=O)c2ccc(OC)c(OC)c2)c1
The “% Inhibition @ 10 uM” value of the first is lower: -1.78% for the first, 12.2% for the second.

Going from `Cc1cccn2c(=O)c3cc(C(=O)N4CCN(C)CC4)c(=N)n(Cc4ccco4)c3nc12` to `COc1ccccc1C(=O)N1CCN(Cc2cc(OC)c(OC)c(OC)c2)CC1`, the “% Inhibition @ 10 uM” value rises from -1.47% to -0.0619%.

Going from `CCOC(=O)c1c(S(=O)(=O)NC2CCN(C(=O)OCC)CC2)c(C)n(C)c1C` to `CCOC(=O)c1c(C)oc2nc(C)nc(NC3CCN(C(=O)OCC)CC3)c12`, the “% Inhibition @ 10 uM” value rises from 1.9% to 3.11%.

Going from `Cc1ccc2oc(=O)c(-c3nc4cc(C(=O)O)ccc4[nH]3)cc2c1` to `Cc1cccc(-n2cnc3cc(C(=O)N4CCCCC4)ccc32)c1`, the “% Inhibition @ 10 uM” value falls from -2.78% to -5.64%.

Compared with `COc1ccccc1CNCc1ccccc1OC`, `COc1ccc(CN2C(=O)c3ccccc3C2C(=O)NCc2cccnc2)c(OC)c1` (centres unmarked) is lower in “% Inhibition @ 10 uM” value: 2.65% for the first, -0.668% for the second.

Going from `O=S(=O)(Cc1ccccc1)Nn1cnnc1` to `CCN(CC)C(=O)CN(c1ccccc1F)S(=O)(=O)c1ccccc1`, the “% Inhibition @ 10 uM” value rises from 0.736% to 3.66%.

Compared with `COc1cc(/C(C#N)=C/c2ccc(Cl)cc2)c([N+](=O)[O-])cc1OC`, `COc1cc(OC)cc(C(=O)Nc2cccc(Cl)c2)c1` is lower in “% Inhibition @ 10 uM” value: 3.03% for the first, -3.5% for the second.

Compared with `CC(=O)N1CCC(N2C[C@@H]3C[C@H](C2)c2cccc(=O)n2C3)CC1`, `CC(=O)N1CCC(NCc2ccc(Cl)c(Cl)c2)CC1` is lower in “% Inhibition @ 10 uM” value: -1.85% for the first, -9.37% for the second.

Compared with `Cc1ccc(C(=O)N/C(=C\c2ccc(F)cc2)C(=O)NCCN2CCOCC2)cc1`, `COc1ccc(CCNC(=O)/C(=C/c2cccnc2)NC(=O)c2ccccc2)cc1OC` is lower in “% Inhibition @ 10 uM” value: 8.01% for the first, 3.79% for the second.

Going from `CCOC(=O)c1[nH]c2ccccc2c1NC(=O)c1ccc(S(=O)(=O)N2CCCCC2)cc1` to `Cc1ccc(S(=O)(=O)N=Nc2c(O)[nH]c3ccccc23)cc1`, the “% Inhibition @ 10 uM” value rises from -4.23% to 5.98%.

Compared with `CCOC(=O)c1nnn(-c2nonc2N)c1COc1ccc(F)cc1`, `CCOc1ccc(NC(=O)C(C)Sc2nc3cc(F)ccc3[nH]2)cc1` (centres unmarked) is lower in “% Inhibition @ 10 uM” value: 3.25% for the first, -3.69% for the second.

First: O=c1cc(CSc2nc3ccsc3c(=O)n2Cc2ccc3c(c2)OCO3)c2ccc(O)cc2o1
Second: CCCNC(=O)c1ccc2nc(SCc3ccc(F)cc3)n(C)c2c1
The “% Inhibition @ 10 uM” value of the first is higher: 1.24% for the first, -0.788% for the second.

Going from `c1ccc(-c2nc3ccccc3c3nnnn23)cc1` to `COc1ccccc1C1CC(c2ccccc2)=NN1c1ccc(Br)cc1` (centres unmarked), the “% Inhibition @ 10 uM” value falls from 5.64% to -0.0267%.

Going from `CCOC(=O)C1=C(C)N=C(C)/C(=C(/O)OCC)C1c1ccco1` (centres unmarked) to `CCCC1=C(C(=O)OCC)C(c2cccnc2)C(C#N)=C(N)O1` (centres unmarked), the “% Inhibition @ 10 uM” value rises from -9.55% to 4.66%.

Compared with `Cc1cnc(C(=O)NC2CCN(c3ncccn3)CC2)cn1`, `CNC(=O)C1CCN(c2nnc(-n3c(C)ccc3C)s2)CC1` is higher in “% Inhibition @ 10 uM” value: 0.596% for the first, 2.76% for the second.

First: COc1cc(-c2nnc3sc(COc4ccccc4Cl)nn23)cc(OC)c1OC
Second: COc1cc(C(=O)N(Cc2ccc(C)cc2)Cc2ccco2)cc(OC)c1OC
The “% Inhibition @ 10 uM” value of the first is higher: 16.7% for the first, -0.45% for the second.

Going from `Cc1cc(Br)ccc1OCC(=O)Nc1ccc(F)cc1` to `Cc1cc(Br)ccc1NC(=O)c1ccc(Cl)cc1`, the “% Inhibition @ 10 uM” value falls from 0.795% to -0.546%.

Going from `O=C1CC(NC23CC4CC(CC(C4)C2)C3)C(=O)N1c1cccc(Cl)c1` (centres unmarked) to `O=C(NC12CC3CC(CC(C3)C1)C2)c1cccc([N+](=O)[O-])c1`, the “% Inhibition @ 10 uM” value rises from -9.24% to -0.856%.

Compared with `Cc1noc2ncnc(NCCCN3CCN(C)CC3)c12`, `Cc1ccc(-c2nc(C#N)c(N3CCN(C)CC3)o2)cc1` is higher in “% Inhibition @ 10 uM” value: -10.6% for the first, -1.33% for the second.

First: CCc1ccc2nc(N3CCC(C(=O)NCCCN(CC)CC)CC3)sc2c1
Second: CCCCNC(=O)c1cc(-c2cccc(O)c2)on1
The “% Inhibition @ 10 uM” value of the first is higher: 2.59% for the first, -1.84% for the second.

Going from `COc1ccc(C2=NN(CCC(=O)NC3CCCCCC3)C(=O)CC2)cc1` to `COc1ccc(C2=NS(=O)(=O)N(C)C(C(=O)N3CCCCC3C)=C2)cc1` (centres unmarked), the “% Inhibition @ 10 uM” value rises from 2.35% to 6.8%.

Compared with `Cc1cccc(NC(=O)c2c(F)cccc2F)c1C`, `Cc1ccc(Cl)cc1NC(=O)C1CC(=O)N(c2cccc(Cl)c2C)C1` (centres unmarked) is lower in “% Inhibition @ 10 uM” value: 2.26% for the first, 1.62% for the second.

First: CCC1CCCCN1C(=O)c1cc(-c2ccccc2OC)on1 (centres unmarked)
Second: CC1CCN(C(=O)c2cc3c(s2)-c2ccccc2SC3)CC1
The “% Inhibition @ 10 uM” value of the first is lower: -5.52% for the first, -2.16% for the second.

Compared with `O=C(Cc1cccs1)N1CCN(c2ccc(OCc3ccccc3)cc2)CC1`, `COCCCNC(=O)c1ccc2c(c1)ncn2-c1ccc(OCc2ccccc2)cc1` is lower in “% Inhibition @ 10 uM” value: 5.97% for the first, 4.35% for the second.

Going from `CCOc1ccccc1C1NC(S)=NC(C)=C1C(=O)OCc1ccccc1` (centres unmarked) to `Cc1ccc(OCC(=O)NC(Cc2ccccc2)C(=O)O)cc1` (centres unmarked), the “% Inhibition @ 10 uM” value falls from 1.38% to -1.46%.

Going from `Cc1nc2c3cccnc3nn2c(C)c1CCC(=O)NCCc1ccc(Cl)cc1` to `O=C(Cn1c(-c2cncs2)nc2ccccc21)Nc1ccc(Cl)cc1`, the “% Inhibition @ 10 uM” value falls from 3.2% to -5.57%.

First: COc1ccc(/C=C2\SC(N3CCCCC3)=NC2=O)cc1
Second: O=C(O)c1ccc(N2CCCCC2)cc1
The “% Inhibition @ 10 uM” value of the first is higher: 5.7% for the first, 3.25% for the second.

Compared with `CC1(C)CC(=O)c2cnc(NCc3ccccc3)nc2C1`, `C=C1c2cc(C)c(C)cc2NC(=O)N1c1ccccc1` is lower in “% Inhibition @ 10 uM” value: 1.98% for the first, -1.55% for the second.

Compared with `Fc1cccc(F)c1CNc1ccc2[nH]ncc2c1`, `CN1C(=O)N(c2cccc(Cl)c2)C(NC(=O)Nc2ccc(Cl)cc2)C1(C)C` (centres unmarked) is higher in “% Inhibition @ 10 uM” value: 1.57% for the first, 3.53% for the second.

Compared with `Oc1cc(-c2ccncc2)[nH]n1`, `O=C(CN(c1ccc(F)cc1)S(=O)(=O)c1ccccc1)NCc1ccncc1` is higher in “% Inhibition @ 10 uM” value: 0.503% for the first, 4.61% for the second.

Compared with `CC(=O)Nc1ccc(C#N)c(C(C)(C)C)c1`, `CC(=O)N(C)S(=O)(=O)c1ccc(C)cc1` is higher in “% Inhibition @ 10 uM” value: -3.83% for the first, 2.92% for the second.

First: CCN1CCCC1CNC(=O)Cn1ncc2c3ccccc3n(Cc3ccccc3C)c2c1=O (centres unmarked)
Second: CCOC(=O)N1CCC(NC(=O)CSCc2cnn(-c3ccccc3)c2-n2cccc2)CC1
The “% Inhibition @ 10 uM” value of the first is lower: -3.35% for the first, -1.08% for the second.

First: CN(C)c1ccc(NC2=CC(=O)c3ccccc3C2=O)cc1
Second: CCN(CC)C1=C(n2nnc3ccccc32)C(=O)c2ccccc2C1=O
The “% Inhibition @ 10 uM” value of the first is higher: 16% for the first, -2.5% for the second.

Going from `COc1cc(NC(=O)C2CC(=O)N=C(N)S2)c(OC)cc1Cl` (centres unmarked) to `COc1ccc(NC(=O)CSc2nc3cccnc3[nH]2)c(OC)c1`, the “% Inhibition @ 10 uM” value rises from -4.86% to 3.29%.

Compared with `Cc1cc(C)cc(OCCc2c(C)n[nH]c2C)c1`, `COc1ccc(CCc2nc(C)ccc2O)cc1` is higher in “% Inhibition @ 10 uM” value: -1.2% for the first, -0.128% for the second.

Going from `COc1ccc(N2CCN(c3oc(COc4cccc(Cl)c4)nc3C#N)CC2)cc1` to `Clc1cccc(CN2CCN(Cc3cccnc3)CC2)c1`, the “% Inhibition @ 10 uM” value rises from -4.67% to 2.39%.

Compared with `CCOC(=O)/C(C#N)=C/c1c(Oc2ccccc2Cl)nc2c(C)cccn2c1=O`, `CCOc1ccc(-c2oc3ccccc3c(=O)c2O)cc1` is higher in “% Inhibition @ 10 uM” value: -1.43% for the first, 3.73% for the second.

Compared with `CCOC(=O)c1c(/N=C/C2C(=O)c3ccccc3C2=O)sc2c1CCCC2`, `CCc1sc(C2C(C#N)=C(N)OC3=C2C(=O)CCC3)cc1COc1ccccc1Cl` (centres unmarked) is higher in “% Inhibition @ 10 uM” value: -5.01% for the first, 1.43% for the second.

Compared with `CCC(C)(C)C1CCc2c(sc(NC(=O)C3CC3)c2C(N)=O)C1` (centres unmarked), `CC(C)C[C@H](NC(=O)C1CCc2ccccc2C1)C(=O)NCC#N` (some centres unmarked) is higher in “% Inhibition @ 10 uM” value: 1.49% for the first, 4.33% for the second.

Going from `CCOC(=O)c1cnc2ncnn2c1O` to `CSc1[nH]nc2ncnc(O)c12`, the “% Inhibition @ 10 uM” value rises from -11.6% to -3.85%.

Compared with `O=C(O)C(c1ccccc1)C(C(=O)O)c1ccccc1` (centres unmarked), `COc1cccc(NC(=O)C2CC(=O)N(c3ccccc3)C2)c1` (centres unmarked) is lower in “% Inhibition @ 10 uM” value: 0.00178% for the first, -2.74% for the second.

Going from `N#CC1=C(N)Oc2cc(N)ccc2C1c1ccccc1Br` (centres unmarked) to `CN1C(=O)[C@@H]2[C@H](C1=O)[C@H](C(=O)c1ccc(Cl)cc1)N1C=Cc3ccccc3[C@@H]21`, the “% Inhibition @ 10 uM” value falls from 3.03% to -1.61%.

Going from `CNC(=O)CCCc1nc(-c2ccc(C)cc2)no1` to `COc1ccc(-c2noc(CCCC(=O)NCc3ccco3)n2)cc1`, the “% Inhibition @ 10 uM” value falls from 3.81% to -6.64%.

Compared with `O=S(=O)(N1CCCCC1)N1CCN(c2cc(Cl)ccc2Cl)CC1`, `Cc1ccc(C2=NS(=O)(=O)N(C)C(C(=O)N3CCCCC3)=C2)cc1` is higher in “% Inhibition @ 10 uM” value: -5.13% for the first, 5.48% for the second.

First: Cc1ccc(C2=NS(=O)(=O)N(C)C(C(=O)NCc3ccco3)=C2)cc1
Second: O=C(NCC1CCCO1)C1Sc2nnc(-c3ccccc3)n2NC1c1ccc(Cl)cc1 (centres unmarked)
The “% Inhibition @ 10 uM” value of the first is lower: -3.07% for the first, 0.0289% for the second.

First: CSc1ccc(CN2CCc3c([nH]c4ccccc34)C2)cc1
Second: COc1ccc(/C=C/C(=O)NC(C)Cc2ccccc2)cc1 (centres unmarked)
The “% Inhibition @ 10 uM” value of the first is lower: 0.317% for the first, 1.9% for the second.

Compared with `CC(C)OCCCNC(=O)CN1Cc2ccccc2C1=O`, `Cc1nn(CCCC(=O)N2CCCC2)c(=O)c2nn(-c3ccccc3)c(C)c12` is lower in “% Inhibition @ 10 uM” value: 0.527% for the first, -2.49% for the second.

Going from `COc1cc(C2C3CN(C)CC=C3C(C#N)=C(N)C2(C#N)C#N)cc(OC)c1OC` (centres unmarked) to `COc1cc2c(cc1NC(=O)c1c(C)nn(C(F)F)c1C)oc1ccccc12`, the “% Inhibition @ 10 uM” value falls from 0.569% to -2.32%.

In the case of `Ic1ccc(OCCCCCN2CCCCC2)cc1`, the “% Inhibition @ 10 uM” value is reported as 3%.
